Experimental data reported in PubChem BioAssay AID1460 (National Center for Advancing Translational Sciences (NCATS), 2008).
Hit rate of the full screen: of about 270,000 compounds, about 5,800 (2.1%) were called active. The shares of active, inactive and inconclusive entries below differ from those in the screen. The call rests on the fitted dose curve; in most records, active means well fitted inhibition curve with a large enough effect; inconclusive means small, poorly fitted or top-dose-only effect; inactive means flat fitted curve, though single readings scatter. Potencies beside an inconclusive call are fits to weak or partial responses and may not hold up.
Further: nearly all actives have a fitted effect of over 55% in size.
Potency means the concentration at half of the fitted maximal effect; tags describe the fitted curve by direction and shape.

The compounds below were run against Microtubule-associated protein tau (Homo sapiens) (UniProt P10636) (assay: qHTS for Inhibitors of Tau Fibril Formation, Thioflavin T Binding). Settings: recombinant tau K18 P301L, heparin-induced fibrillization, ThT fluorescence; series mostly up to 57.4 µM.
UniProt P10636, sequence (P10636 whole entry, looked up): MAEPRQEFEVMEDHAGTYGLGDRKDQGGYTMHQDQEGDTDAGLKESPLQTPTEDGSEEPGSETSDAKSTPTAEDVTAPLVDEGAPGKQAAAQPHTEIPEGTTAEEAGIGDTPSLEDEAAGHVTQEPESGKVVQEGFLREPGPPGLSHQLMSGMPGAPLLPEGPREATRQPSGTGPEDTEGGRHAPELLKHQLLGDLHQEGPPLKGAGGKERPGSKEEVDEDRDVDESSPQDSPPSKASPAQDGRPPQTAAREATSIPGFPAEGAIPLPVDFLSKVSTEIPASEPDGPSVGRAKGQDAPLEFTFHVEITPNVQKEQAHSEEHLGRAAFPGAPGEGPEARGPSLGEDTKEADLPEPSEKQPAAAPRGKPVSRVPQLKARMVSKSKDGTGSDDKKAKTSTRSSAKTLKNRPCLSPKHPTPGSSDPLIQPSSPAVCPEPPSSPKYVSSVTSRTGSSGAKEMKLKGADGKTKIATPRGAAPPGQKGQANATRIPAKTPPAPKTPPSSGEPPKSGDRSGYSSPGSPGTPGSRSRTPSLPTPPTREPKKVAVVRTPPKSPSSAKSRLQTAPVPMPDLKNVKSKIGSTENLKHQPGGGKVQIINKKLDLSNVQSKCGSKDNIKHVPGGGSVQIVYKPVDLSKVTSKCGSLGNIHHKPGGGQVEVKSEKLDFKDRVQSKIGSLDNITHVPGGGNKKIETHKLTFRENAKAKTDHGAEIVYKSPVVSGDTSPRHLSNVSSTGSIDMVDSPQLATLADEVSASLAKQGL
Procedure, shortened: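 ThT emission at 510 nm, taken 1 hr after adding 30 uM dye, quantifies aggregates formed when 20 uM heparin acts on human tau K18 P301L for 6 hr at 37 C.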
For `COC(=O)c1cc(OC)c(OC)cc1NC(=O)C(C)c1ccc([N+](=O)[O-])cc1` (configuration not stated), the Potency was inconclusive: 20 µM [inhibitor, single point]. `COc1ccc(NC(=O)N/C=C/c2ccccc2)cc1` was tested, and the Potency was inconclusive: 3.16 µM [inhibitor, partial curve]. For `C=CCNC(=S)NNC(=O)c1ccc(OCC)cc1`, the Potency was “inactive”. `COc1cccc(CNC(=O)c2cc(-c3cccc(OC)c3)n[nH]2)c1` was tested, and the Potency was inconclusive: 39.8 µM [inhibitor, single point]. With `Cc1ccc(-c2csc(N)n2)s1` the Potency was active: 31.6 µM. `Cc1nn(-c2ccccc2)c(C)c1C(=O)Nc1ccc(N2CCOCC2)cc1` was tested, and the Potency was inconclusive: 5.62 µM [inhibitor, full curve]. With `CCn1ncc(C2=NOC(C(=O)NCc3ccccc3)C2)c1C` (configuration not stated) the Potency was “inactive”. For `Cc1cc(Cl)ccc1OCC(=O)NCCCCc1ccccc1`, the Potency was inconclusive: 15.8 µM [inhibitor, partial curve, poor fit]. With `N#Cc1c(-c2ccc(F)cc2)cc(-c2cccnc2)nc1N` the Potency was “inactive”. `O=C(Oc1c(CN2CCOCC2)cc(Cl)c2cccnc12)c1ccccc1` was tested, and the Potency was inconclusive: 10 µM [inhibitor, partial curve]. In the case of `Cc1cc(C)c2oc(-c3cccc(NC(=O)c4ccco4)c3)nc2c1`, the Potency was inconclusive: 0.794 µM [inhibitor, single point]. With `COc1ccccc1OCCNS(=O)(=O)c1ccc2oc3ccccc3c2c1` the Potency was “inactive”. For `CCCc1nc2sc3c(SCC(=O)NCc4ccco4)ncnc3c2c2c1CCC2`, the Potency was inconclusive: 25.1 µM [inhibitor, partial curve]. In the case of `CC(=O)N1CCC(=NNc2ncc(C(F)(F)F)cc2Cl)CC1`, the Potency was inconclusive: 20 µM [inhibitor, single point]. `O=C(CNC(=O)c1ccncc1)N/N=C/c1ccccn1` was tested, and the Potency was “inactive”. `Cc1ccc(S(=O)(=O)N(C)Cc2ccc(-c3nnc4n3CCC4)cc2)cc1` was tested, and the Potency was “inactive”. For `COc1cc(C=O)ccc1OCC(=O)NC(C)(C)C`, the Potency was “inactive”. For `CC(NC(=O)Cc1ccc(-c2ccccc2)cc1)c1ccccc1` (configuration not stated), the Potency was inconclusive: 20 µM [inhibitor, partial curve]. For `Clc1ccc2c(N/N=C/c3ccc(Br)cc3)ccnc2c1`, the Potency was inconclusive: 8.91 µM [inhibitor, single point]. With `COc1cc(C(=O)Nc2ccc(S(=O)(=O)Nc3cc(C)nc(C)n3)cc2)cc(OC)c1OC` the Potency was “inactive”. `Cc1[nH]c2ccccc2c1/C=N/Nc1nc(N2CCCCC2)nc(N2CCCCC2)n1` was tested, and the Potency was inconclusive: 10 µM [inhibitor, partial curve]. For `Cc1cccc(OCC(=O)Nc2ccc3nc(C)sc3c2)c1`, the Potency was inconclusive: 0.708 µM [inhibitor, full curve]. In the case of `Cc1ccc(Cl)cc1N1CCN(C(=O)c2ccc3c(c2)N(Cc2ccccc2F)C(=O)c2ccccc2S3(=O)=O)CC1`, the Potency was “inactive”. For `Cc1cc(O)c(C(C)C)cc1N=Cc1ccccc1O`, the Potency was active: 3.55 µM. With `CCOc1ccc(N2CC(C(=O)NCCN3C(=O)S/C(=C\c4ccc(OC)cc4)C3=O)CC2=O)cc1` (configuration not stated) the Potency was inconclusive: 4.47 µM [inhibitor, full curve]. `COc1ccc(CCn2c(N)c(C(=O)NCc3ccco3)c3nc4ccccc4nc32)cc1` was tested, and the Potency was inconclusive: 10 µM [inhibitor, partial curve]. In the case of `COc1ccc(CC(=O)NCc2ccc3c(c2)CCN3C(=O)c2ccc(C)cc2)cc1OC`, the Potency was “inactive”. With `CC(=O)Nc1ccc2c(c1)N(C(=O)CN(C)C)c1ccccc1CC2` the Potency was inconclusive: 25.1 µM [inhibitor, partial curve]. For `CCn1nc(C)c(/C=C2\CCCC3=C2OC(N)=C(C#N)C3c2c(C)nn(CC)c2C)c1C` (configuration not stated), the Potency was inconclusive: 5.62 µM [inhibitor, partial curve]. `Cc1ccc(CCNC(=O)Cn2c(-c3cccs3)cc3cc(F)ccc32)cc1` was tested, and the Potency was “inactive”. In the case of `COc1cccc(C(=O)Nc2c(C(=O)NC(C)(C)C)oc3ccccc23)c1`, the Potency was “inactive”. `CN(C)c1ccc(NC(=O)c2ccc3c(c2)nnn3C)cc1` was tested, and the Potency was inconclusive: 15.8 µM [inhibitor, partial curve]. For `CCOC(=O)Cc1cc(=O)n2[nH]c(C)c(-c3ccc(OC)cc3)c2n1`, the Potency was inconclusive: 17.8 µM [inhibitor, partial curve]. For `COC(=O)c1ccccc1NC(=S)NC(=O)C1CC1`, the Potency was inconclusive: 5.62 µM [inhibitor, partial curve]. For `CCOC(=O)N1CCN(C(=O)c2ccc3c(=O)n(-c4ccc(F)cc4)c(=S)[nH]c3c2)CC1`, the Potency was “inactive”. For `Cc1ccc(CNC(=O)Cn2ccn(-c3ccc(C)c(C)c3)c(=O)c2=O)cc1`, the Potency was “inactive”. For `O=C(/C=C/c1ccco1)NCC1OCCc2ccccc21` (configuration not stated), the Potency was inconclusive: 22.4 µM [inhibitor, partial curve]. `CN(C)c1ccc(CNC(=O)CN(C)S(=O)(=O)c2ccc3c(c2)c(=O)n(C)c(=O)n3C)cc1` was tested, and the Potency was “inactive”. With `Cc1ccc(-n2nnc3c(SCC(=O)NCc4ccco4)ncnc32)cc1` the Potency was inconclusive: 15.8 µM [inhibitor, partial curve]. With `CN(C)c1ccc(C(=O)c2ccc(N(C)C)c(N)c2)cc1N` the Potency was inconclusive: 39.8 µM [inhibitor, single point]. `C1COC(NC(C2CC2)C2CC2)=N1` was tested, and the Potency was inconclusive: 39.8 µM [inhibitor, single point]. `COc1ccc(CN2COc3ccc4c(-c5ccccc5)cc(=O)oc4c3C2)cc1` was tested, and the Potency was inconclusive: 28.2 µM [inhibitor, single point]. In the case of `COc1cc(Cl)c(C)cc1NC(=O)CSc1ccc(C)cc1`, the Potency was inconclusive: 39.8 µM [inhibitor, single point]. For `O=C(O)c1ccc(N/N=C/c2ccc(F)c(F)c2)cc1`, the Potency was inconclusive: 14.1 µM [inhibitor, partial curve]. For `Cc1ccccc1Nc1nnc(-c2ccc(C)c(S(=O)(=O)N3CCOCC3)c2)c2ccccc12`, the Potency was “inactive”. For `Cc1ccc(S(=O)(=O)Nc2ccc(Br)cc2C(NCC(=O)O)c2ccccc2)cc1` (configuration not stated), the Potency was “inactive”. For `CCc1ccc(NC(=O)c2cc3sc(Cl)cc3n2C)cc1`, the Potency was inconclusive: 5.62 µM [inhibitor, partial curve].
